In article PMC7360740:
Results are given in words; binding and its absence hold for the method and conditions named. For some of these results: In cells and extracts the contact can be indirect. Some entries that bind do so weakly or less than the wild type. Values belong to the substance of their own block, whether it stands above or below them.

Protein sequences, listed by entry. Tags and fused reporters are not part of them. Lines headed by an entry give the natural chain unless they say otherwise; changes in a name come on top.
UniProt Q15286: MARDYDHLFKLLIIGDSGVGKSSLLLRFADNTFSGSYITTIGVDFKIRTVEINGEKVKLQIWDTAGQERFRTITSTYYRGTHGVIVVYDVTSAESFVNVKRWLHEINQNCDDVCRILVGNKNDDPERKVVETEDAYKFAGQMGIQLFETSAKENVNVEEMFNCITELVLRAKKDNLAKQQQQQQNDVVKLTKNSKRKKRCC
UniProt Q9UQB8: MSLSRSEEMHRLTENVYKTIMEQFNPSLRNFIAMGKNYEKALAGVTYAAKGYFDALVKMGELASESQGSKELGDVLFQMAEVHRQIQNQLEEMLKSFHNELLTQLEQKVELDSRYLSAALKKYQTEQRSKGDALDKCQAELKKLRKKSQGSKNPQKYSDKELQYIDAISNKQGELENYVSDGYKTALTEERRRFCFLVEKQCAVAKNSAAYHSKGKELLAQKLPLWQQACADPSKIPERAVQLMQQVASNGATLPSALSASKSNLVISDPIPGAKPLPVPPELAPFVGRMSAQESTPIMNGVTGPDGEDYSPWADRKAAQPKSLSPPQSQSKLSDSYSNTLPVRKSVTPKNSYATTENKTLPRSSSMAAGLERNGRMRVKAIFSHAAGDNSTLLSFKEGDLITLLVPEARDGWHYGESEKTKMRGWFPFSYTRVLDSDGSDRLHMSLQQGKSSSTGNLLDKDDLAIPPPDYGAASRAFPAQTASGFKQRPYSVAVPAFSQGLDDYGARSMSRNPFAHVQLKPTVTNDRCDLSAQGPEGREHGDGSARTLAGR

Experiments:
[1] = target: GST-RAB35S22N (UniProt Q15286); assay: far-Western, overlay or dot blot; indicated amounts of GST-RAB35S22N spotted onto nitrocellulose, incubated with 30 nM IRSp53 WT or IRSp53 I-BAR*; anti-IRSp53 immunoblot; both purified
[2] = target: Flag-IRSp53 (UniProt Q9UQB8); assay: condition: only cells treated with growth factors after serum starvation; co-IP; as a1, but the serum-starved HeLa cells were treated with growth factors before lysis
[3] = target: Flag-IRSp53 (UniProt Q9UQB8); assay: co-IP; lysates (1 mg) of HeLa cells transfected with GFP-RAB35 and Flag-IRSp53, serum starved overnight, not treated with growth factors; anti-FLAG M2 affinity gel, IP buffer (40 mM Hepes pH7.5, 150 mM NaCl, 10 mM MgCl2, 0.3% CHAPS), 4 °C; immunoblot
[4] = target: GST-RAB35S22N (UniProt Q15286); assay: pull-down + far-Western, overlay or dot blot; pull-down: 2.5 µM GST-RAB35S22N or GST-RAB35Q67L on beads with 1 µM His-IRSp53 in IVB buffer (50 mM Tris pH 7.5, 100 mM NaCl, 10 mM MgCl2, 0.1% Triton X-100, 0.05% BSA), 1 h at 4 °C; overlay on nitrocellulose, set-up in Supplementary Fig. 4D, E not …; both purified
[5] = target: GST-RAB35WT (UniProt Q15286); assay: pull-down + far-Western, overlay or dot blot; as a3, with 2.5 µM GST-RAB35WT loaded with GDP (1 mM, 1 h 37 °C); both purified
[6] = target: recombinant purified His-IRSp53 (UniProt Q9UQB8); assay: far-Western, overlay or dot blot; equal amounts (50 nM) of IRSp53 full-length WT, fragments and mutant spotted onto nitrocellulose, incubated with GST-RAB35S22N (50 nM); anti-GST immunoblot; both purified

binding [1]: no binding (tested: 30 nM)
Substance: recombinant purified IRSp53 I-BAR* (K142E, K143E, K146E, K147E) (from UniProt Q9UQB8 1-552)

binding [2]: no binding
binding [3]: binds
Substance: GFP-RAB35 (from UniProt Q15286 1-201)

binding [4]: binds weakly
binding [5]: binds weakly
binding [1]: binds
Substance: recombinant purified His-IRSp53 (from UniProt Q9UQB8 1-552)

binding [6]: binds
Substance: GST-RAB35S22N (from UniProt Q15286 1-201)
